# B1: PAb-421: monoclonal antibody (Ab1) against the C-terminal DNA-binding domain of murine p53; VH SEQ ID NO:2, VL SEQ ID NO:3 (antibody, listed as Mus sp., V domains shown)
# VH: QVKLQESGAELVRSGASVKLSCTASGFNIKDYYMHWVKQRPEQGLEWIGWIDPENGDTEYAPKFQGKATMTADTSSNTAYLQLSSLASEDTAVYYCNFYGDALDYWGQGTTVTVSS
# VL: DIQLTQSPLTLSVTIGQPASISCKSSQSLLDSDGKTYLNWLLQRPGQSPKRLIYLVSKLDSGVPDRFTGSGSGTDFTLKINRVEAEDLGVYYCWQGTHSPLTFGAGTKLK
# modifications: BINDING (26)..(35) Complementary Determining Region; BINDING (24)..(39) Complementary Determining Region
# System: native, histone-free DNA of Crithidia luciliae
# Assay: Crithidia luciliae assay of sera of Ab1-immunized mice
# Format: in vivo
# Conditions: sera of C57BL/6 mice immunized to the Ab1
# Experimental: Slides with Crithidia were purchased from Immco (Buffalo, N.Y.) and incubated with the test sera according to the manufacturer's protocol.
# Test sera were then examined for binding to DNA using the Crithidia luciliae assay, which detects antibodies—to native, histone-free DNA exposed at the base of the Crithidia flagellum. Both BALB/c and C57BL/6 mice immunized to […] or PAb-248 were negative for anti-DNA antibodies in the Crithidia assay, as were C57BL/6 mice immunized to PAb-421. […] The finding of positive reactivity in the Crithidia assay correlates with the clinical disease seen in the BALB/c mice. The Crithidia luciliae assay is used clinically for its diagnostic specificity for lupus in humans (Aarden et al, 1975).
molecule,measurement,value
B1,anti-DNA antibodies in the Crithidia assay,negative
